# This is one part of the list.
# B1: MAA (Maackia amurensis), P0DKL3 (protein)
# chain: MATSNSKPTQVLLATFLTFFFLLLNNVNSSDELSFTINNFVPNEADLLFQGEASVSSTGVLQLTRVENGQPQKYSVGRALYAAPVRIWDNTTGSVASFSTSFTFVVKAPNPDITSDGLAFYLAPPDSQIPSGSVSKYLGLFNNSNSDSSNQIVAVELDTYFAHSYDPWDPNYRHIGIDVNGIESIKTVQWDWINGGVAFATITYLAPNKTLIASLVYPSNQTTFSVAASVDLKEILPEWVRVGFSAATGYPTEVETHDVLSWSFTSTLEANCDAATENNVHIARYTA
# How the values were obtained:
# Assay in all cases: glycan array binding signal (z-score within array); higher = stronger binding
# Details in all cases: glycan notation: IUPAC condensed, linker removed
# [1] = target: Neu5Ac(a2-3)Gal(b1-3)GalNAc(b1-4)[Neu5Ac(a2-8)Neu5Ac(a2-3)]Gal(b1-4)Glc
# In short: (§1)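 Glycan array data were curated from 3228 arrays in the Consortium for Functional Glycomics database and kept only where the protein sequence was available. Glycan names were converted to IUPAC-condensed notation, and columns mapping to the same glycan were averaged. The binding signal is a within-array Z-score, averaged across arrays of the same protein sequence at different concentrations or buffers and across linkers. Negative Z-scores can be read as non-binding.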
# [2] = target: Neu5Ac(a2-3)Gal(b1-3)GalNAc6S
# In short: as §1
# [3] = target: Neu5Ac(a2-3)Gal(b1-3)GlcNAc
# In short: as §1
# [4] = target: Neu5Ac(a2-3)Gal(b1-3)GlcNAc(b1-2)Man
# In short: as §1
# [5] = target: Neu5Ac(a2-3)Gal(b1-3)GlcNAc(b1-2)Man(a1-3)[GlcNAc(b1-4)][Neu5Ac(a2-3)Gal(b1-3)GlcNAc(b1-2)Man(a1-6)]Man(b1-4)GlcNAc(b1-4)GlcNAc
# In short: as §1
# [6] = target: Neu5Ac(a2-3)Gal(b1-3)GlcNAc(b1-2)Man(a1-3)[Neu5Ac(a2-3)Gal(b1-3)GlcNAc(b1-2)Man(a1-6)]Man(b1-4)GlcNAc(b1-4)GlcNAc
# In short: as §1
# [7] = target: Neu5Ac(a2-3)Gal(b1-3)GlcNAc(b1-3)Gal(b1-3)GlcNAc
# In short: as §1
# [8] = target: Neu5Ac(a2-3)Gal(b1-3)GlcNAc(b1-3)Gal(b1-4)GlcNAc
# In short: as §1
# [9] = target: Neu5Ac(a2-3)Gal(b1-3)GlcNAc(b1-3)GalNAc
# In short: as §1
# [10] = target: Neu5Ac(a2-3)Gal(b1-3)GlcNAc(b1-4)Gal(b1-4)Glc
# In short: as §1
# [11] = target: Neu5Ac(a2-3)Gal(b1-3)GlcNAc(b1-6)GalNAc
# In short: as §1
# [12] = target: Neu5Ac(a2-3)Gal(b1-3)GlcNAc6S
# In short: as §1
# [13] = target: Neu5Ac(a2-3)Gal(b1-3)[Fuc(a1-4)]GlcNAc
# In short: as §1
# [14] = target: Neu5Ac(a2-3)Gal(b1-3)[Fuc(a1-4)]GlcNAc(b1-3)Gal(b1-3)[Fuc(a1-4)]GlcNAc
# In short: as §1
# [15] = target: Neu5Ac(a2-3)Gal(b1-3)[Fuc(a1-4)]GlcNAc(b1-3)Gal(b1-4)[Fuc(a1-3)]GlcNAc
# In short: as §1
# [16] = target: Neu5Ac(a2-3)Gal(b1-3)[GlcNAc(b1-6)]GalNAc
# In short: as §1
# [17] = target: Neu5Ac(a2-3)Gal(b1-3)[Neu5Ac(a2-3)Gal(b1-4)]GlcNAc
# In short: as §1
# [18] = target: Neu5Ac(a2-3)Gal(b1-3)[Neu5Ac(a2-6)]GalNAc
# In short: as §1
# [19] = target: Neu5Ac(a2-3)Gal(b1-3)[Neu5Ac(a2-6)]GlcNAc(b1-3)[Fuc(a1-3)[Gal(b1-4)]GlcNAc(b1-6)]Gal(b1-4)Glc
# In short: as §1
# [20] = target: Neu5Ac(a2-3)Gal(b1-3)]Neu5Ac(a2-3)Gal(b1-4)]GlcNAc
# In short: as §1
# [21] = target: Neu5Ac(a2-3)Gal(b1-4)Glc
# In short: as §1
# [22] = target: Neu5Ac(a2-3)Gal(b1-4)GlcNAc
# In short: as §1
# [23] = target: Neu5Ac(a2-3)Gal(b1-4)GlcNAc(b1-2)Man
# In short: as §1
# [24] = target: Neu5Ac(a2-3)Gal(b1-4)GlcNAc(b1-2)Man(a1-3)[GlcNAc(b1-4)][Neu5Ac(a2-3)Gal(b1-4)GlcNAc(b1-2)Man(a1-6)]Man(b1-4)GlcNAc(b1-4)GlcNAc
# In short: as §1
# [25] = target: Neu5Ac(a2-3)Gal(b1-4)GlcNAc(b1-2)Man(a1-3)[Neu5Ac(a2-3)Gal(b1-4)GlcNAc(b1-2)Man(a1-6)]Man(b1-4)GlcNAc(b1-4)GlcNAc
# In short: as §1
# [26] = target: Neu5Ac(a2-3)Gal(b1-4)GlcNAc(b1-2)Man(a1-3)[Neu5Ac(a2-3)Gal(b1-4)GlcNAc(b1-2)Man(a1-6)]Man(b1-4)GlcNAc(b1-4)[Fuc(a1-6)]GlcNAc
# In short: as §1
# [27] = target: Neu5Ac(a2-3)Gal(b1-4)GlcNAc(b1-2)Man(a1-3)[Neu5Ac(a2-6)Gal(b1-4)GlcNAc(b1-2)Man(a1-6)]Man(b1-4)GlcNAc(b1-4)GlcNAc
# In short: as §1
# [28] = target: Neu5Ac(a2-3)Gal(b1-4)GlcNAc(b1-2)[Neu5Ac(a2-3)Gal(b1-4)GlcNAc(b1-4)]Man(a1-3)[GlcNAc(b1-4)][Neu5Ac(a2-3)Gal(b1-4)GlcNAc(b1-2)[Neu5Ac(a2-3)Gal(b1-4)GlcNAc(b1-6)]Man(a1-6)]Man(b1-4)GlcNAc(b1-4)GlcNAc
# In short: as §1
# [29] = target: Neu5Ac(a2-3)Gal(b1-4)GlcNAc(b1-2)[Neu5Ac(a2-3)Gal(b1-4)GlcNAc(b1-4)]Man(a1-3)[GlcNAc(b1-4)][Neu5Ac(a2-3)Gal(b1-4)GlcNAc(b1-4)Man(a1-6)]Man(b1-4)GlcNAc(b1-4)GlcNAc
# In short: as §1
# [30] = target: Neu5Ac(a2-3)Gal(b1-4)GlcNAc(b1-2)[Neu5Ac(a2-3)Gal(b1-4)GlcNAc(b1-6)]Man(a1-6)[Neu5Ac(a2-3)Gal(b1-4)GlcNAc(b1-2)Man(a1-3)]Man(b1-4)GlcNAc(b1-4)GlcNAc
# In short: as §1
# [31] = target: Neu5Ac(a2-3)Gal(b1-4)GlcNAc(b1-2)[Neu5Ac(a2-3)Gal(b1-4)GlcNAc(b1-6)]Man(a1-6)[Neu5Ac(a2-3)Gal(b1-4)GlcNAc(b1-2)Man(a1-3)][GlcNAc(b1-4)]Man(b1-4)GlcNAc(b1-4)GlcNAc
# In short: as §1
# [32] = target: Neu5Ac(a2-3)Gal(b1-4)GlcNAc(b1-3)Gal
# In short: as §1
# [33] = target: Neu5Ac(a2-3)Gal(b1-4)GlcNAc(b1-3)Gal(b1-3)GlcNAc
# In short: as §1
# [34] = target: Neu5Ac(a2-3)Gal(b1-4)GlcNAc(b1-3)Gal(b1-4)GlcNAc
# In short: as §1
# [35] = target: Neu5Ac(a2-3)Gal(b1-4)GlcNAc(b1-3)Gal(b1-4)GlcNAc(b1-2)Man(a1-3)[Neu5Ac(a2-3)Gal(b1-4)GlcNAc(b1-3)Gal(b1-4)GlcNAc(b1-2)Man(a1-6)]Man(b1-4)GlcNAc(b1-4)GlcNAc
# In short: as §1
# [36] = target: Neu5Ac(a2-3)Gal(b1-4)GlcNAc(b1-3)Gal(b1-4)GlcNAc(b1-3)Gal(b1-4)GlcNAc
# In short: as §1
# [37] = target: Neu5Ac(a2-3)Gal(b1-4)GlcNAc(b1-3)Gal(b1-4)GlcNAc(b1-3)Gal(b1-4)GlcNAc(b1-2)Man(a1-3)[Neu5Ac(a2-3)Gal(b1-4)GlcNAc(b1-3)Gal(b1-4)GlcNAc(b1-3)Gal(b1-4)GlcNAc(b1-2)Man(a1-6)]GalNAc
# In short: as §1
# [38] = target: Neu5Ac(a2-3)Gal(b1-4)GlcNAc(b1-3)Gal(b1-4)GlcNAc(b1-3)GalNAc
# In short: as §1
# [39] = target: Neu5Ac(a2-3)Gal(b1-4)GlcNAc(b1-3)Gal(b1-4)GlcNAc(b1-3)[Neu5Ac(a2-3)Gal(b1-4)GlcNAc(b1-3)Gal(b1-4)GlcNAc(b1-6)]GalNAc
# In short: as §1
# [40] = target: Neu5Ac(a2-3)Gal(b1-4)GlcNAc(b1-3)Gal(b1-4)GlcNAc(b1-6)[Gal(b1-3)]GalNAc
# In short: as §1
# [41] = target: Neu5Ac(a2-3)Gal(b1-4)GlcNAc(b1-3)Gal(b1-4)[Fuc(a1-3)]GlcNAc
# In short: as §1
# [42] = target: Neu5Ac(a2-3)Gal(b1-4)GlcNAc(b1-3)GalNAc
# In short: as §1
# [43] = target: Neu5Ac(a2-3)Gal(b1-4)GlcNAc(b1-3)[Neu5Ac(a2-3)Gal(b1-4)GlcNAc(b1-6)]GalNAc
# In short: as §1
# [44] = target: Neu5Ac(a2-3)Gal(b1-4)GlcNAc(b1-6)GalNAc
# In short: as §1
# [45] = target: Neu5Ac(a2-3)Gal(b1-4)GlcNAc(b1-6)[Gal(b1-3)]GalNAc
# In short: as §1
binder,measurement,setting,value
B1,glycan array binding signal (z-score),[1],-0.163
same,glycan array binding signal (z-score),[2],-0.26
same,glycan array binding signal (z-score),[3],-0.244
same,glycan array binding signal (z-score),[4],-0.025
same,glycan array binding signal (z-score),[5],-0.213
same,glycan array binding signal (z-score),[6],-0.016
same,glycan array binding signal (z-score),[7],-0.173
same,glycan array binding signal (z-score),[8],-0.264
same,glycan array binding signal (z-score),[9],-0.138
same,glycan array binding signal (z-score),[10],-0.175
same,glycan array binding signal (z-score),[11],-0.183
same,glycan array binding signal (z-score),[12],-0.161
same,glycan array binding signal (z-score),[13],-0.219
same,glycan array binding signal (z-score),[14],-0.21
same,glycan array binding signal (z-score),[15],-0.225
same,glycan array binding signal (z-score),[16],-0.229
same,glycan array binding signal (z-score),[17],-0.209
same,glycan array binding signal (z-score),[18],-0.213
same,glycan array binding signal (z-score),[19],-0.175
same,glycan array binding signal (z-score),[20],-0.254
same,glycan array binding signal (z-score),[21],0.13
same,glycan array binding signal (z-score),[22],0.599
same,glycan array binding signal (z-score),[23],-0.167
same,glycan array binding signal (z-score),[24],-0.106
same,glycan array binding signal (z-score),[25],1.17
same,glycan array binding signal (z-score),[26],0.779
same,glycan array binding signal (z-score),[27],0.052
same,glycan array binding signal (z-score),[28],0.383
same,glycan array binding signal (z-score),[29],0.479
same,glycan array binding signal (z-score),[30],-0.29
same,glycan array binding signal (z-score),[31],0.023
same,glycan array binding signal (z-score),[32],0.689
same,glycan array binding signal (z-score),[33],0.34
same,glycan array binding signal (z-score),[34],1.1
same,glycan array binding signal (z-score),[35],0.785
same,glycan array binding signal (z-score),[36],1.27
same,glycan array binding signal (z-score),[37],0.409
same,glycan array binding signal (z-score),[38],0.246
same,glycan array binding signal (z-score),[39],1.22
same,glycan array binding signal (z-score),[40],0.564
same,glycan array binding signal (z-score),[41],0.179
same,glycan array binding signal (z-score),[42],0.626
same,glycan array binding signal (z-score),[43],0.568
same,glycan array binding signal (z-score),[44],-0.073
same,glycan array binding signal (z-score),[45],-0.014

# Source: the supplement of paper PMC8728848
